Assay results as given in the supplement of paper PMC8728848.
The other results are listed elsewhere or left out.

How the values were obtained:
Test in all cases: glycan array binding signal (z-score within array); higher = stronger binding
Conditions in all cases: glycan notation: IUPAC condensed, linker removed
[1] = molecular target: Fuc(a1-2)Gal
How it was run: (§1)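 Glycan array data came from 3228 arrays in the Consortium for Functional Glycomics database, and only arrays with an available protein sequence were kept. Glycan names were put into IUPAC-condensed notation, and columns mapping to the same glycan were averaged. The binding signal is a within-array Z-score, averaged across arrays of one protein sequence run at different concentrations or buffers and across linkers. A negative Z-score can be read as non-binding.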

[2] = molecular target: Fuc(a1-2)Gal(b1-3)GalNAc
How it was run: as §1

[3] = molecular target: Fuc(a1-2)Gal(b1-3)GalNAc(a1-3)[Fuc(a1-2)]Gal(b1-4)Glc
How it was run: as §1

[4] = molecular target: Fuc(a1-2)Gal(b1-3)GalNAc(a1-3)[Fuc(a1-2)]Gal(b1-4)GlcNAc
How it was run: as §1

[5] = molecular target: Fuc(a1-2)Gal(b1-3)GalNAc(b1-3)Gal
How it was run: as §1

[6] = molecular target: Fuc(a1-2)Gal(b1-3)GalNAc(b1-3)Gal(a1-4)Gal(b1-4)Glc
How it was run: as §1

[7] = molecular target: Fuc(a1-2)Gal(b1-3)GalNAc(b1-4)[Neu5Ac(a2-3)]Gal(b1-4)Glc
How it was run: as §1

[8] = molecular target: Fuc(a1-2)Gal(b1-3)GlcNAc
How it was run: as §1

[9] = molecular target: Fuc(a1-2)Gal(b1-3)GlcNAc(b1-2)Man(a1-3)[Fuc(a1-2)Gal(b1-3)GlcNAc(b1-2)Man(a1-6)]Man(b1-4)GlcNAc(b1-4)GlcNAc
How it was run: as §1

[10] = molecular target: Fuc(a1-2)Gal(b1-3)GlcNAc(b1-2)Man(a1-3)[Fuc(a1-2)Gal(b1-3)GlcNAc(b1-2)Man(a1-6)]Man(b1-4)GlcNAc(b1-4)[Fuc(a1-6)]GlcNAc
How it was run: as §1

[11] = molecular target: Fuc(a1-2)Gal(b1-3)GlcNAc(b1-3)Gal(b1-4)Glc
How it was run: as §1

[12] = molecular target: Fuc(a1-2)Gal(b1-3)GlcNAc(b1-3)GalNAc
How it was run: as §1

[13] = molecular target: Fuc(a1-2)Gal(b1-3)GlcNAc(b1-3)[Fuc(a1-2)Gal(b1-3)GlcNAc(b1-6)]GalNAc
How it was run: as §1

[14] = molecular target: Fuc(a1-2)Gal(b1-3)GlcNAc(b1-3)[Gal(b1-4)GlcNAc(b1-6)]Gal(b1-4)Glc
How it was run: as §1

[15] = molecular target: Fuc(a1-2)Gal(b1-3)GlcNAc(b1-3)[Neu5Ac(a2-6)Gal(b1-4)GlcNAc(b1-6)]Gal(b1-4)Glc
How it was run: as §1

[16] = molecular target: Fuc(a1-2)Gal(b1-3)GlcNAc6S
How it was run: as §1

[17] = molecular target: Fuc(a1-2)Gal(b1-3)[Fuc(a1-4)]GlcNAc
How it was run: as §1

[18] = molecular target: Fuc(a1-2)Gal(b1-3)[Fuc(a1-4)]GlcNAc(b1-2)Man(a1-3)[Fuc(a1-2)Gal(b1-3)[Fuc(a1-4)]GlcNAc(b1-2)Man(a1-3)]Man(b1-4)GlcNAc(b1-4)GlcNAc
How it was run: as §1

[19] = molecular target: Fuc(a1-2)Gal(b1-3)[Fuc(a1-4)]GlcNAc(b1-2)Man(a1-3)[Fuc(a1-2)Gal(b1-3)[Fuc(a1-4)]GlcNAc(b1-2)Man(a1-6)]Man(b1-4)GlcNAc(b1-4)[Fuc(a1-6)]GlcNAc(b1-4)[Fuc(a1-6)]GlcNAc
How it was run: as §1

[20] = molecular target: Fuc(a1-2)Gal(b1-3)[Fuc(a1-4)]GlcNAc(b1-3)[Fuc(a1-3)[Gal(b1-4)]GlcNAc(b1-6)]Gal(b1-4)Glc
How it was run: as §1

[21] = molecular target: Fuc(a1-2)Gal(b1-3)[Fuc(a1-4)]GlcNAc(b1-3)[Gal(b1-4)GlcNAc(b1-6)]Gal(b1-4)Glc
How it was run: as §1

[22] = molecular target: Fuc(a1-2)Gal(b1-4)Glc
How it was run: as §1

[23] = molecular target: Fuc(a1-2)Gal(b1-4)Glc6S
How it was run: as §1

[24] = molecular target: Fuc(a1-2)Gal(b1-4)GlcNAc
How it was run: as §1

[25] = molecular target: Fuc(a1-2)Gal(b1-4)GlcNAc(b1-2)Man
How it was run: as §1

[26] = molecular target: Fuc(a1-2)Gal(b1-4)GlcNAc(b1-2)Man(a1-3)[Fuc(a1-2)Gal(b1-4)GlcNAc(b1-2)Man(a1-6)]Man(b1-4)GlcNAc(b1-4)GlcNAc
How it was run: as §1

[27] = molecular target: Fuc(a1-2)Gal(b1-4)GlcNAc(b1-2)Man(a1-3)[Fuc(a1-2)Gal(b1-4)GlcNAc(b1-2)Man(a1-6)]Man(b1-4)GlcNAc(b1-4)[Fuc(a1-6)]GlcNAc
How it was run: as §1

[28] = molecular target: Fuc(a1-2)Gal(b1-4)GlcNAc(b1-2)[Fuc(a1-2)Gal(b1-4)GlcNAc(b1-4)]Man(a1-3)[Fuc(a1-2)Gal(b1-4)GlcNAc(b1-2)Man(a1-6)]Man(b1-4)GlcNAc(b1-4)GlcNAc
How it was run: as §1

[29] = molecular target: Fuc(a1-2)Gal(b1-4)GlcNAc(b1-3)Gal(b1-4)GlcNAc
How it was run: as §1

[30] = molecular target: Fuc(a1-2)Gal(b1-4)GlcNAc(b1-3)Gal(b1-4)GlcNAc(b1-2)Man(a1-3)[Fuc(a1-2)Gal(b1-4)GlcNAc(b1-3)Gal(b1-4)GlcNAc(b1-2)Man(a1-6)]Man(b1-4)GlcNAc(b1-4)GlcNAc
How it was run: as §1

B1: Epa13 (Candida glabrata) (protein)
chain: MGSSHHHHHHSSGLVPRGSHMASDSSENGYAHGCSPSIRAKLKPGLSMEIYSYALRPTDDHCWDSAYLDPMFPRTGYLTHKLLGKAEGIIGPLNFLAKNPACIPAVSTLPLAFHFPKPFTITNFTMLLYGYLSPKKTGKYTFKLLADDLLLMNFGADNAFDCCSHDATKDNIGEYVAYSVWPGVNKNVTVYLESGIYYPLRLFFNNRDAIAQLDFAYYFNDSPIRQTDFSGMFFSIPDSVKCPANI
How did the “glycan array binding signal (z-score)” value [1] turn out when B1 was run?
The value was -0.46.

And the “glycan array binding signal (z-score)” value [2]?
The value was -0.298.

And the “glycan array binding signal (z-score)” value [3]?
The value was -0.365.

What about the “glycan array binding signal (z-score)” value [4] of the same binder?
The value was -0.269.

And the “glycan array binding signal (z-score)” value [5]?
The value was 0.112.

What about the “glycan array binding signal (z-score)” value [6] of the same binder?
Its value is -0.036.

And the “glycan array binding signal (z-score)” value [7]?
The value was -0.255.

What about the “glycan array binding signal (z-score)” value [8] of the same binder?
Its value is -0.422.

What about the “glycan array binding signal (z-score)” value [9] of the same binder?
The value was -0.07.

And the “glycan array binding signal (z-score)” value [10]?
The value was -0.493.

What about the “glycan array binding signal (z-score)” value [11] of the same binder?
Its value is -0.434.

And the “glycan array binding signal (z-score)” value [12]?
Its value is -0.447.

And the “glycan array binding signal (z-score)” value [13]?
Its value is 0.191.

What about the “glycan array binding signal (z-score)” value [14] of the same binder?
Its value is -0.241.

And the “glycan array binding signal (z-score)” value [15]?
Its value is -0.32.

What about the “glycan array binding signal (z-score)” value [16] of the same binder?
Its value is -0.001.

And the “glycan array binding signal (z-score)” value [17]?
Its value is -0.516.

What about the “glycan array binding signal (z-score)” value [18] of the same binder?
Its value is 0.221.

What about the “glycan array binding signal (z-score)” value [19] of the same binder?
The value was -0.221.

And the “glycan array binding signal (z-score)” value [20]?
Its value is -0.604.

What about the “glycan array binding signal (z-score)” value [21] of the same binder?
Its value is -0.097.

And the “glycan array binding signal (z-score)” value [22]?
Its value is -0.492.

What about the “glycan array binding signal (z-score)” value [23] of the same binder?
Its value is 0.064.

What about the “glycan array binding signal (z-score)” value [24] of the same binder?
Its value is -0.472.

And the “glycan array binding signal (z-score)” value [25]?
The value was 0.385.

And the “glycan array binding signal (z-score)” value [26]?
The value was -0.344.

And the “glycan array binding signal (z-score)” value [27]?
Its value is -0.168.

And the “glycan array binding signal (z-score)” value [28]?
The value was -0.499.

What about the “glycan array binding signal (z-score)” value [29] of the same binder?
The value was -0.413.

And the “glycan array binding signal (z-score)” value [30]?
The value was -0.157.
